Assay results reported in PubChem BioAssay AID463173 (ICCB-Longwood Screening Facility, Harvard Medical School, 2010).
Out of some 52,000 compounds screened, about 1,700 (3.3%) were called active. Cut-off read from the data, not from the text of the source: active = survival mostly below about 52% (no sharp cut-off); inactive = mostly above about 56%. The list shows a part of the results.

system: Wild type; test: growth inhibition of S. aureus wild type versus tarO mutant, primary screen, teichoic acid synthesis inhibitors, RN4220, OD600 (AID 463173); conditions: S. aureus RN4220 wild type/DeltatarO growth, OD600, 18 h, active compounds read low, screened at 18.75 µg/mL (by protocol)

Row | Structure (SMILES) | survival
1 | Cc1ccc(N2C(=O)C(CC(=O)Nc3ccc(F)cc3)N(Cc3ccc4c(c3)OCO4)C2=O)cc1 (centres undefined) | inactive: 80%
2 | Cc1ccc(CNC(=O)c2ccc3c(c2)NC(=O)C(CS(=O)(=O)Cc2cccc(F)c2)N3)cc1 (centres undefined) | inactive: 117%
3 | CC(=O)c1ccc(NC(=O)c2cc3c(=O)oc4ccc(C)cc4c3s2)cc1 | inactive: 119%
4 | CCOC(=O)CCNC(=O)N1CCN(S(=O)(=O)c2ccc3c(ccn3C)c2)CC1 | inactive: 113%
5 | CCc1nn(CC(=O)NCCCc2ccccc2)c(=O)c2cc3cc(F)ccc3n12 | inactive: 96%
6 | Cc1ccc(CNC(=O)Cn2c(-c3cccs3)cc3cc(Cl)ccc32)cc1 | inactive: 85%
7 | O=C(CSCn1nnc2c(=O)[nH]c(Cc3ccc(F)cc3)nc21)Nc1ccccc1 | inactive: 81%
8 | COc1ccc(NC(=O)C2=CC(c3ccc4c(c3)OCO4)=NS(=O)(=O)N2C)cc1OC | inactive: 83%
9 | O=S(=O)(c1ccc(Cl)cc1)c1nc(-c2ccccc2F)oc1NCc1ccccc1 | inactive: 83%
10 | Cc1cccc(N2C(=O)C(CC(=O)Nc3cccc(F)c3)N(CCc3ccncc3)C2=O)c1 (centres undefined) | inactive: 84%
11 | Cc1ccc(C(=O)Nc2ccc(S(=O)(=O)N(Cc3ccccc3)c3ccccc3)cc2)cc1 | inactive: 77%
12 | O=C(CSCc1ccccc1Cl)N/N=C/c1ccco1 | inactive: 105%
13 | CCC(C)NC(=O)C1CCN(Cc2cc(OC)ccc2OC)CC1 (centres undefined) | inactive: 104%
14 | Cc1cc(F)ccc1S(=O)(=O)Nc1cc2c(C(=O)O)c(C)oc2c2ccccc12 | inactive: 51%
15 | Cc1cc(N2CCN(c3cc(Cl)ccc3C)CC2)n2nc(-c3ccccc3)nc2n1 | inactive: 83%
16 | COc1ccc(OC)c(CC2C(=O)Nc3ccc(Br)cc32)c1 (centres undefined) | inactive: 84%
17 | COC(=O)c1cc2sccc2n1Cc1ccc(F)cc1Cl | inactive: 46%
18 | CCOC(=O)c1c(C)oc2ccc(N(C(C)=O)S(=O)(=O)c3c(C)cc(C)cc3C)cc12 | inactive: 131%
19 | O=C(COc1ccc(F)cc1)Nc1ccc2nc(SCCOc3ccccc3)sc2c1 | inactive: 88%
20 | N#Cc1ccc(NC(=O)C2Cc3ccccc3CN2S(=O)(=O)c2ccc(F)cc2)cc1 (centres undefined) | inactive: 64%
21 | CCCCNC(=O)C1CCC(Cn2c(=O)c3sccc3n(CC(=O)Nc3ccccc3)c2=O)CC1 (centres undefined) | inactive: 110%
22 | Cc1nc2cc(NC(=O)Nc3ccccc3Cl)ccc2n1C | inactive: 109%
23 | COCCn1c(=N)c(C(=O)NC2CCCC2)cc2c(=O)n3cc(C)ccc3nc21 | inactive: 88%

Row | Structure (SMILES) | survival
24 | O=C(Nc1ccccc1C(=O)OCc1cc(=O)n2ccsc2n1)c1ccccc1Cl | inactive: 75%
25 | O=C(NC1CCN(Cc2ccccc2)CC1)c1ccc(Cn2c(=O)c3ccccc3n(Cc3cccc(F)c3)c2=O)cc1 | inactive: 94%
26 | CCN(CC)CCNC(=O)c1cn(CC)c2ccc(S(=O)(=O)N3CCc4ccccc4C3)cc2c1=O | inactive: 82%
27 | CCC(=O)N1CCc2cc(Br)cc(S(=O)(=O)N3CCN(c4cc(C)ccc4C)CC3)c21 | inactive: 66%
28 | CCOC(=O)c1cc(-c2ccc(C)cc2)n(CCC(=O)NCCc2ccc(C)cc2)c1C | inactive: 98%
29 | Cc1cccc(C)c1NC(=O)CCC(=O)N1Cc2ccccc2Oc2ncccc21 | inactive: 69%
30 | CCC(=O)N1CCc2cc(Br)cc(S(=O)(=O)CCC(=O)Nc3ccc(Cl)cc3)c21 | inactive: 77%
31 | COc1cc(-c2cc3n(C)c(C)c(CCC(=O)NC4CCCCC4)c(=O)n3n2)cc(OC)c1OC | inactive: 90%
32 | CC(=O)NC1(c2ccccc2F)CCN(CC(=O)N2CCN(C(=O)c3ccco3)CC2)CC1 | inactive: 103%
33 | O=C(Cc1ccc(NC(=O)N2CCSc3ncccc32)cc1)NCc1cccc(Cl)c1 | inactive: 65%
34 | Cc1ccc(NC(=O)C2CCCN2S(=O)(=O)c2cccc3cccnc23)c(C)c1 (centres undefined) | inactive: 81%
35 | O=C(Nc1cccc(OCc2cc(=O)n3ccccc3n2)c1)Nc1cccc(C(F)(F)F)c1 | active: -6%
36 | Cc1ccc2c(=O)c(C(=O)c3ccc(Cl)cc3)cn(CC(=O)Nc3ccc4c(c3)OCCO4)c2n1 | inactive: 76%
37 | Cc1cccc(C(=O)NCc2nc3ccccc3n2Cc2ccccc2Cl)c1 | inactive: 107%
38 | CCOc1ccccc1CNC(=O)c1oc2c(c1C)-c1nn(Cc3cccc(Cl)c3)cc1CC2 | inactive: 82%
39 | CCOC(=O)c1c(C)n(-c2ccccc2)c2ccc(OC(=O)c3c(F)cccc3F)cc12 | inactive: 80%
40 | COCCNC(=O)CN1CCC(NC(=O)Nc2ccc(C(F)(F)F)cc2)CC1 | inactive: 102%
41 | CCOc1ccc(Cn2c(CNS(=O)(=O)c3ccc(C(C)(C)C)cc3)nc3cccnc32)cc1 | inactive: 80%
42 | COc1cccc(NC(=O)Cn2c(=O)n(Cc3ccc(C(=O)NCc4ccc(C)cc4)cc3)c(=O)c3ccccc32)c1 | inactive: 71%
43 | COc1ccc(Cl)cc1C(=O)NCCS(=O)(=O)N1CCN(c2ccccc2OC)CC1 | inactive: 71%
44 | CCCC(C)C(=O)Nc1nnc(C(F)(F)F)s1 (centres undefined) | inactive: 100%
45 | CCOc1ccc(CNC(=O)C2=Cc3cccc(OC)c3OC2)cc1 | inactive: 72%
46 | COc1ccc(CCNC(=O)C2c3ccccc3C(=O)N2Cc2ccccc2)cc1OC (centres undefined) | inactive: 72%

Row | Structure (SMILES) | survival
47 | Cc1ccccc1OCC(=O)Nc1ccc2nc(SCC(=O)N3CCOCC3)sc2c1 | inactive: 87%
48 | O=C(CN1C(=O)C2(SCC(=O)N2c2ccc(F)c(F)c2)c2ccccc21)Nc1cccc(Cl)c1 (centres undefined) | inactive: 68%
49 | CCOc1ccc(NC(=O)CCNS(=O)(=O)c2cccs2)cc1 | inactive: 59%
50 | Cn1c(SCC#N)nc2c(c1=O)C1(CCCCC1)Cc1ccccc1-2 | inactive: 113%
51 | Cc1ccc(-c2nn(CCC(N)=O)c(=O)c3ccccc23)cc1 | inactive: 65%
52 | COc1c(C)cc(NS(=O)(=O)c2ccc3c(c2)OCCO3)cc1C | inactive: 85%
53 | COc1ccc2c(C)c(CCC(=O)NCc3ccccc3Cl)c(=O)oc2c1C | inactive: 84%
54 | O=C(CCC1CCCCC1)Nc1nccs1 | inactive: 114%
55 | COc1ccc(CNC(=O)C2CCN(C(=O)N3CCOc4ccc(Cl)cc43)CC2)cc1 | inactive: 110%
56 | Cc1cc(Nc2ccccc2O)nc(C)n1 | inactive: 84%
57 | COc1ccc(NC(=O)CCCN2C(=O)CCn3nc(-c4cn(C)c5ccccc45)cc32)cc1 | inactive: 90%
58 | Cc1ccc(C)c(S(=O)(=O)n2nc(C)c(S(=O)(=O)N3CCCCCC3)c2C)c1 | inactive: 63%
59 | Cc1cccc(C)c1-n1ncc(C(=O)NCCN2CCN(C)CC2)c1C1CCN(C(=O)OC(C)(C)C)CC1 | active: 0%
60 | CCOC(=O)c1cnc2ccc(OC)cc2c1Nc1cccc(C(C)=O)c1 | active: 2%
61 | CCOc1ccc(C(=O)NCc2nc(-c3ccc(Cl)cc3)no2)cc1OCC | inactive: 90%
62 | CCN(Cc1ccccc1)S(=O)(=O)c1ccc(F)c(C(=O)Nc2cc(C)ccc2OC)c1 | inactive: 120%
63 | Cc1cccc(NC(=O)C2CCN(S(=O)(=O)c3c(C)noc3/C=C/c3ccco3)CC2)c1 | inactive: 69%
64 | C=CCn1c(N)c(-c2nc3ccccc3[nH]2)sc1=S | inactive: 120%
65 | O=C(NC1CC1)C1C2C=CC3(O2)C1C(=O)N(Cc1ccccc1)C3C(=O)NC1CCCC1 (centres undefined) | inactive: 103%
66 | Fc1ccc(CNc2nc3c(-c4ccc(F)cc4)nnn3c3ccccc23)cc1 | inactive: 84%
67 | COc1ccc(N(C)C(C)=O)cc1 | inactive: 89%
68 | COc1cccc(/C=C/c2nc(C#N)c(N(C)Cc3ccccc3)o2)c1 | inactive: 79%
69 | COc1ccc(-c2noc(CSCC(=O)Nc3ccc(C)cc3Br)n2)cc1OC | inactive: 72%

Row | Structure (SMILES) | survival
70 | COCCCNC(=O)CN1C(=O)c2c(c3ccccc3n2C)C1c1ccc(OC)cc1 (centres undefined) | inactive: 84%
71 | CCCCSc1ncnc2c1sc1nc(N3CCOCC3)c3c(c12)CCCC3 | inactive: 73%
72 | COc1cc(C(=O)NCc2ccc3c(c2)CCN3C(=O)c2ccncc2)cc(OC)c1OC | inactive: 73%
73 | Cc1ccc(NC(=O)NCCc2c(C)nn(C)c2C)c(Cl)c1 | inactive: 71%
74 | CC1=C(C(=O)Nc2ccc(C)cc2)C(c2ccccc2Cl)n2nnnc2N1 (centres undefined) | inactive: 146%
75 | CCOc1ccc(CNC(=O)COc2cc(=O)n(C)c3ccccc23)cc1 | inactive: 71%
76 | CC(C)(C)c1cn2ccc3ccccc3c2n1 | inactive: 113%
77 | Cc1ccc(NC(=O)c2cc(-c3ccc4c(c3)OCO4)on2)cc1 | inactive: 105%
78 | Cc1cccc2c1-c1sc(C(=O)NCc3ccccc3Cl)cc1CO2 | inactive: 92%
79 | CCCN1CCN(CCCNC(=O)Cn2nc(C)n3c(cc4cc(F)ccc43)c2=O)CC1 | inactive: 80%
80 | COc1cc(NC(=O)c2ccc(C(=O)Nc3cc(OC)c(Cl)cc3OC)cc2)c(OC)cc1Cl | inactive: 65%
81 | CCN(CC)C(=O)COc1ccc2ccc(=O)oc2c1 | inactive: 110%
82 | CCC(=O)N1CCc2cc(Br)cc(S(=O)(=O)CCC(=O)NCc3ccccc3)c21 | inactive: 85%
83 | COc1cccc(NC(=O)c2cc(CN3CCOCC3)on2)c1 | inactive: 79%
84 | CSc1cccc(NC(=O)CN(C)S(=O)(=O)c2ccc3c(c2)n(C)c(=O)c(=O)n3C)c1 | inactive: 71%
85 | Cc1nn2c(=O)cc(COC(=O)c3ccc(C(C)(C)C)cc3)nc2s1 | inactive: 83%
86 | COc1ccccc1CNC(=O)c1c2c(nc3ccccc13)C(=O)N(C1CCCCC1)C2 | inactive: 124%
87 | O=c1ccc2cc(S(=O)(=O)N3CCCC3)ccc2[nH]1 | inactive: 75%
88 | Cc1cccc(C(=O)N2CCC(C)CC2)c1 | inactive: 104%
89 | O=C(NCCN1CCOCC1)N1CCNC1=O | inactive: 110%
